Hit rate of the full screen: of about 45,000 compounds, about 200 (0.44%) were called active. About 7% were inconclusive and are not listed. The call rests on the fitted dose curve; in most records, active means well fitted activation curve with a large enough effect; inconclusive means small, poorly fitted or top-dose-only effect; inactive means no such curve, though single readings can be large or run the other way. The list shows a part of the results.
Assay: qHTS of TDP-43 Inhibitors: NCGC Sytravon Library Screen; further: 0% is about no effect; nearly all actives have a fitted effect of over 55% in size
Conditions: yeast TDP-43 toxicity rescue, BacTiter-Glo growth, 24 h; series mostly up to 46.1 µM; growth rescue (activation): at the top concentration
How it was run: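 TDP-43-expressing yeast, pregrown in raffinose, seeded at OD600 0.02 in galactose medium with compound for 24 hr at 30 deg C. Growth read by BacTiter-Glo luminescence, so rescue of toxicity appears as activation.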

| SMILES | growth rescue (activation) |
| --- | --- |
| CC1(C(=O)NCc2cccnc2)CCN1C(=O)c1cccc(F)c1 (stereo not drawn) | inactive: 7.37% |
| Cc1cccnc1NC(=O)c1c(O)c2cccc3c2n(c1=O)CCC3 | inactive: -5.42% |
| C=CCC(Nc1ccccc1)c1cccc(OC)c1OC (stereo not drawn) | inactive: -6.2% |
| O=C1CCCC2=C1C(c1ccccc1)C1C(=O)c3ccccc3C1=N2 (stereo not drawn) | inactive: 2.27% |
| COc1ccc(-c2ccc(C(=O)O)o2)c([N+](=O)[O-])c1 | inactive: 1.01% |
| COC(=O)C1=C(C)N(C)C(=S)NC1c1ccccc1 (stereo not drawn) | inactive: -26.7% |
| Cc1c(C(=O)NC(=S)Nc2ccc(N3CCOCC3)cc2)cccc1[N+](=O)[O-] | inactive: 8.72% |
| COCCSc1ccccc1C(=O)N1CCN(c2ccccc2)CC1 | inactive: 13.6% |
| O=C(OCc1nc2ccc(Cl)cc2n1CCO)c1ccccc1 | inactive: -0.523% |
| O=C(Cc1cccs1)NNC(=O)C12CC3CC(CC(C3)C1)C2 | inactive: 8.75% |
| O=C(Nc1ccccc1Cl)c1ccc(Cl)cc1Cl | inactive: 8.83% |
| O=C(CCC(=O)c1cccs1)OCC(=O)c1ccc(F)cc1 | inactive: 6.04% |
| O=C1CCCc2nn(-c3ccccc3)c(-c3ccncc3)c21 | inactive: 20.9% |
| CC(C)C(NC(=O)c1ccccc1)c1nnc(SCC(=O)NC2CCCC2)n1C (stereo not drawn) | inactive: 1.63% |
| COc1ccc(NC(=O)COC(=O)C2CC(=O)N(c3ccc(C)cc3)C2)cc1 (stereo not drawn) | inactive: 9.01% |
| CSc1cccc(N2C(=O)C3CCCN3C2=S)c1 (stereo not drawn) | inactive: 12.5% |
| COCc1c(C(=O)N/N=C/c2ccc(C)o2)nnn1-c1nonc1N | inactive: -12.8% |
| COC(=O)c1ccc(NC(=O)c2nc(-c3ccc(Cl)cc3)n3c2CCCCC3)cc1 | inactive: 27.1% |
| CCn1nc(C(=O)NNC(=O)C(Cc2ccccc2)NC(N)=O)c2ccccc2c1=O (stereo not drawn) | inactive: 6.03% |
| Cc1ncc(CO)c(/C=N/Nc2ccc(C(F)(F)F)cn2)c1O | inactive: 5.76% |
| CCOC(=O)c1ccc(N=Nc2c(C)c(C#N)c(O)[nH]c2=O)cc1 | inactive: 6.12% |
| C/C=C/c1ccc(OCCCCOc2c(OC)cccc2OC)c(OC)c1 | inactive: 7.36% |

| SMILES | growth rescue (activation) |
| --- | --- |
| Cc1ccccc1NS(=O)(=O)c1cc(C(=O)N2CCCC2)ccc1C | inactive: 7.81% |
| CC(NC(=O)Cc1ccccc1)C(c1ccccc1)N1CCOCC1 (stereo not drawn) | inactive: -3.34% |
| CC(C)N(C(=O)NC(=O)Nc1ccccn1)S(C)(=O)=O | inactive: -9.7% |
| C=CCOc1ccc(/C=C2\SC(=S)N(NS(=O)(=O)c3ccccc3)C2=O)cc1 | inactive: 1.85% |
| CC(C)(C)C1CCc2nc(NC(=O)Cc3cn4ccsc4n3)sc2C1 (stereo not drawn) | inactive: -81.5% |
| CCCNC(=O)C1(C)CCN(C(=O)c2ccc(F)cc2Cl)C1 (stereo not drawn) | inactive: -1.24% |
| Fc1cccc(-n2ncc3c2ncn2nc(Cc4ccccc4)nc32)c1 | inactive: 8.69% |
| CC(=O)NC(C)(c1ccccc1)c1nc(-c2cccc(C(F)(F)F)c2)cs1 (stereo not drawn) | inactive: 25% |
| O=C(O)c1oc2ccccc2c1CSc1ccc(Cl)cc1 | inactive: 5.89% |
| O=C(NNS(=O)(=O)c1ccc([N+](=O)[O-])cc1)c1ccncc1 | inactive: -5.81% |
| O=C(CSc1nnc(-c2ccc(S(=O)(=O)N3CCCC3)cc2)n1CC1CCCO1)NC1CC1 (stereo not drawn) | inactive: 30.7% |
| COc1ccccc1C(=O)C1CCCN(C(=O)c2cn3cc(Cl)ccc3n2)C1 (stereo not drawn) | inactive: 12.4% |
| CC1CCCC(C)N1C(=O)COC(=O)c1ccc(Br)c(S(=O)(=O)N2CCOCC2)c1 (stereo not drawn) | inactive: -21.7% |
| COc1ccc(-n2c(SCC(=O)c3ccc[nH]3)nnc2-c2ccccc2)cc1 | inactive: -21% |
| COc1ccccc1CNC(=O)c1ccc2nc(C)c(N(C)Cc3ccc(NC(C)=O)cc3)n2c1 | inactive: 10.6% |
| COc1ccc(-c2nn(-c3ccccc3C)cc2CNC(C)c2cn(C)nc2C)cc1F (stereo not drawn) | inactive: -9.64% |
| O=C(C[n+]1cc(Br)cc2ccccc21)c1ccc(Br)cc1 | inactive: 3.95% |
| COc1ccc(C2CC(c3cccs3)=NN2C(=O)c2ccco2)cc1OC (stereo not drawn) | inactive: 10.8% |
| COCCNC(C(=O)Nc1ccc([N+](=O)[O-])cc1Br)c1ccccc1 (stereo not drawn) | inactive: 11.2% |
| CN(C)C(=O)CSc1nnc(-c2cccs2)n1-c1ccccc1 | inactive: 25.3% |
| CNC(=O)CN1C(=O)NC(Cc2c[nH]c3ccccc23)C1=O (stereo not drawn) | inactive: 1.66% |
| COc1ccccc1/C=C/C(=C1/C(=O)N(c2ccccc2)N=C1C)c1ccc(C)cc1 | inactive: -0.76% |

| SMILES | growth rescue (activation) |
| --- | --- |
| COc1ccc(C/C(N)=N/O)cc1 | inactive: 5.97% |
| CC(O)C(NS(=O)(=O)c1ccc(Cl)cc1)C(=O)OCC(=O)N1CCN(c2ccccc2)CC1 (stereo not drawn) | inactive: 14.5% |
| CC1CCc2c(sc3ncn(Cc4ccc(C(=O)O)cc4)c(=O)c23)C1 (stereo not drawn) | inactive: 4.32% |
| COCC(=O)N1CCC(Oc2ccc(C(=O)NC3CCOC(C)(C)C3)cc2)CC1 (stereo not drawn) | inactive: 2.81% |
| CC(=O)Nc1cccc(OCC(=O)NC(C)c2ccc3ccccc3c2)c1 (stereo not drawn) | inactive: 3.12% |
| N#CCc1ccc(NC(=O)c2cc(S(=O)(=O)N3CCOCC3)ccc2Cl)cc1 | inactive: 0.833% |
| O=C(COC(=O)c1ccc(CNS(=O)(=O)c2ccc(F)c(Cl)c2)cc1)NC1CCCCCCC1 | inactive: 15.7% |
| COc1cc(CC(NC(C)=O)C(=O)NC2CCN(C(=O)c3cc(OC)c(OC)c(OC)c3)CC2)cc(OC)c1 (stereo not drawn) | inactive: 2.53% |
| O=C(c1ccccc1)c1ccc(-n2ccnc2)c([N+](=O)[O-])c1 | inactive: 2.06% |
| Cc1cc(NC(=O)Cn2ccc([N+](=O)[O-])n2)no1 | inactive: 1.08% |
| Cc1nc(Cl)c(N=Cc2cccc([N+](=O)[O-])c2)c(Cl)n1 | inactive: 17.7% |
| Cc1c(C)n(CCCN(C)C)c2ncnc(NC3CCCCC3)c12 | inactive: -3.83% |
| CCOc1ccc(NS(=O)(=O)c2cc(C(=O)NCCN3CCOCC3)ccc2C)cc1 | inactive: 2.4% |
| CCCCn1c(-c2ccc(Br)cc2F)nc2c1c(=O)[nH]c(=O)n2CC(C)C | inactive: 26.3% |
| CC(C)CNc1nnnc2c1sc1nc(N3CCOCC3)c3c(c12)CCCC3 | inactive: 16% |
| Cc1ccc(S(=O)(=O)NC(=O)NC(C)c2ccc(F)cc2)cc1 (stereo not drawn) | inactive: 0.327% |
| Cc1n[nH]c(C)c1CCCCOc1ccccc1F | inactive: 16.5% |
| OC(c1ccc(OCc2ccccc2)cc1)c1nnc(-c2ccccc2)o1 (stereo not drawn) | inactive: 12.8% |
| O=C(CSc1nc2ccccc2c(=O)[nH]1)NCc1ccc(Cl)cc1 | inactive: 13.1% |
| COc1ccc(N(C)S(=O)(=O)c2c(C)noc2C)c(OC)c1 | inactive: -9.29% |
| COc1ccc(C2=NN(C(=O)c3ccccc3)C(c3ccccc3)C2)c(O)c1 (stereo not drawn) | inactive: -1.04% |
| Cn1cc(C(=O)NCN2CCCCC2)c2ccccc21 | inactive: 7.28% |

| SMILES | growth rescue (activation) |
| --- | --- |
| CCCC1=[N+](CC(C)=O)CCn2c(C)ccc21 | inactive: -12.8% |
| O=C(COC(=O)c1ccccc1O)Nc1cccc(S(=O)(=O)NC2=NCCCCC2)c1 | inactive: 5.51% |
| COc1cc(CNCCCN2CCOCC2)c(Br)cc1OCC(=O)Nc1ccccc1C | inactive: -2.51% |
| Fc1ccccc1COc1ccc(Br)cc1CNCc1cccnc1 | inactive: -1.67% |
| COc1ccc(NCC(=O)N/N=C(\C)c2cc3ccccc3o2)cc1 | inactive: 18.1% |
| O=C(COc1ccccc1Cl)Nc1ccc(C(=O)c2ccc(C(=O)O)cc2)cc1 | inactive: 11.3% |
| COc1ccc(CCN(C(=O)c2ccco2)C(C(=O)NC2CCCC2)c2ccncc2)cc1OC (stereo not drawn) | inactive: -1.92% |
| CCc1nc(=O)c(-c2ccccc2)c(C)n1-c1ccccc1 | inactive: -7.94% |
| O=C(O)c1ccc(-n2nnnc2SCc2cccc(Br)c2)cc1 | inactive: 3.24% |
| CCc1ccc(/C=N/NC(=O)c2cc(-c3cccc([N+](=O)[O-])c3)n[nH]2)cc1 | inactive: 0.729% |
| O=C(Nc1ccccc1C(F)(F)F)c1cc(-c2ccco2)on1 | inactive: -9.5% |
| CCn1cc(C(=O)N2CCCC(C(=O)c3ccc4ccccc4c3)C2)cn1 (stereo not drawn) | inactive: 27.8% |
| Cc1ccccc1N(C(=O)c1snc(C(N)=O)c1N)C(C)C(=O)NC1CCCCC1 (stereo not drawn) | inactive: 7.13% |
| CCC(C)(C#CCN1CCCCC1)OCCC#N (stereo not drawn) | inactive: 8.56% |
| Cc1nc2ccc(S(=O)(=O)N3CCCCC3)cc2s1 | inactive: 1.14% |
| Oc1ccc2ccccc2c1CN1CCOCC1 | inactive: 20.2% |
| Cc1cc(C)cc(N(CCC(=O)O)S(=O)(=O)c2ccc(Cl)cc2)c1 | inactive: 7.05% |
| Cc1ccc2[nH]c3c(=O)[nH]ncc3c2c1 | inactive: -3.32% |
| CCOc1ccc(-n2c(SCC(=O)NCc3ccco3)nc3ccccc3c2=O)cc1 | inactive: 9.04% |
| NS(=O)(=O)c1cccc(NC(=O)CSc2nnnn2-c2ccccc2)c1 | inactive: -4% |
| O=C(Nc1cccc(S(=O)(=O)N2CCCC2)c1)c1cc(-c2ccccn2)nc2ccccc12 | inactive: -5.6% |
| COc1cccc(NC(=O)N2C3CCCC2CC(NC(=O)C2CC2)C3)c1 (stereo not drawn) | inactive: -20.9% |

| SMILES | growth rescue (activation) |
| --- | --- |
| O=C(O)/C=C/c1ccc(S(=O)(=O)NCc2ccco2)cc1 | inactive: 9.51% |
| CCOc1ccc(C(=O)Nc2nc(C)c(C(=O)OC)s2)cc1 | inactive: 10% |
| Cc1ccc(S(=O)(=O)CC(=O)Nc2nnc(C(C)C)s2)cc1 | inactive: 1.04% |
| CC(C)=C(NC(=O)c1ccccc1)C(=O)NCc1ccccc1 | inactive: 0.936% |
| NC(c1csc(Nc2ccc(C(=O)NCCCO)cn2)n1)c1ccccc1Cl (stereo not drawn) | inactive: -3.17% |
| O=C(N/N=C/c1cccnc1)c1cccs1 | inactive: -18.1% |
| O=C(NCC1CC1)c1ccc(-n2ccnc2)c2ccoc12 | inactive: 6.58% |
| CC(=O)NC(Cc1cccc(F)c1)C(=O)NC1CCN(C(=O)c2ccc(C)cc2)CC1 (stereo not drawn) | inactive: 9.7% |
| CC(C)CCN1C(=O)c2ccccc2CC1(C)C(=O)NC1CCC(C)CC1 (stereo not drawn) | inactive: 1.26% |
| CCn1c(=O)c([N+](=O)[O-])c(NCCc2ccc(OC)c(OC)c2)c2ccccc21 | inactive: 1.59% |
| O=C1/C(=C\c2ccccc2Cl)SC(=S)N1CCC(=O)N1CCCc2ccccc21 | inactive: 28.3% |
| CCN(CC)C(=O)CSC1=C(C#N)C(c2ccco2)C(C(=O)OCCOC)=C(C)N1 (stereo not drawn) | inactive: 19.1% |
| CCNc1nc(NC(C)C)nc(N(n2cnnc2)S(=O)(=O)c2ccc(C)cc2)n1 | inactive: 7.02% |
| Cc1cc2cc(CN(Cc3ccco3)C(=O)NCc3ccccc3)c(=O)[nH]c2cc1C | inactive: 24.6% |
| Cc1ccc(NC(=O)CN2CCN(C(=O)c3ccco3)CC2)cc1 | inactive: -9.25% |
| O=C(CNS(=O)(=O)c1ccc(Br)s1)NCc1ccccc1 | inactive: -11.5% |
| CC(C)C(NC(=O)/C=C/c1cccc([N+](=O)[O-])c1)C(C)C | inactive: 3.59% |
| COc1cccc(C(=O)Nc2nnc(Cc3ccc(OC)c(OC)c3)s2)c1 | inactive: 1.92% |
| CCC(C)(C)NC(=O)c1ccccc1Oc1ccccc1 | inactive: 1.35% |
| Cc1ccc(N(CC(=O)NCCSc2ccccn2)S(=O)(=O)c2ccc(F)cc2)cc1 | inactive: 5.41% |
